Legend:
human cN-IIIB [1] = target: T1, human cN-IIIB (Homo sapiens, UniProt Q969T7)
T1 sequence (Q969T7 1-300): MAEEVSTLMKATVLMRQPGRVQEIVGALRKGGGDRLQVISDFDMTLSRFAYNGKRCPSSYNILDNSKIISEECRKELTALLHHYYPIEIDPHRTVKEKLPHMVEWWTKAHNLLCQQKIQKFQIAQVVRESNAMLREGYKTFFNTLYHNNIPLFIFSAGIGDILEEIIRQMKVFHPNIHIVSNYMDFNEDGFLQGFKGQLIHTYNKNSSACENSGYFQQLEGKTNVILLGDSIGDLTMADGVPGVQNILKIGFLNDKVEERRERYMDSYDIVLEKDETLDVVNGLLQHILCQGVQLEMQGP

human cN-IIIB [2] = target: T1, human cN-IIIB; test: IC50 determination for cN-IIIB (MGP assay)
human cN-IIIB [3] = target: T1, human cN-IIIB; test: Hydrolysis assay: susceptibility to hydrolysis by cN-IIIB (MGP assay); assay type: biochemical; set-up: expressed as a construct of full-length protein (residues 1–300); His6 (N, cleaved yes); ubiquitin-like Smt protein (SUMO) (N, cleaved yes); made in house; conditions: cN-IIIB 80 nM, 45 min, MGP assay

- Inhibition of cN-IIIB activity, first library (in words) (human cN-IIIB [1]; m7GMP 100 μM + inhibitor 100 μM, cN-IIIB 80 nM, 45 min): inhibited cN-IIIB to some extent
- Inhibition (human cN-IIIB [1]; relative percentage of inhibition of cN-IIIB, first-library hits (Figure 2A)): 65.1%
- IC50 (human cN-IIIB [2]): 102 ± 7.8 µM
- Susceptibility to hydrolysis (%) (human cN-IIIB [3]; library I, compound 100 μM, relative to m7GMP set to 100%): 0.0%
- Susceptibility to hydrolysis (%) (human cN-IIIB [3]; library II, compound 100 µM): 0.0%
SMILES: C[n+]1cn([C@@H]2O[C@H](Cn3cc(P(=O)([O-])O)nn3)[C@@H](O)[C@H]2O)c2nc(N)[nH]c(=O)c21 [Compound 4]
